According to the RNAGym collection of RNA variant scans (doi:10.1093/nar/gkz1192):
Read counts are not given, so values of variants with three or more changes are uncertain.

B1: CPEB3 Ribozyme (parent)
chain: UAACAGGGGGCCACAGCAGAAGCGUUCACGUCGCAGCCCCUGUCAGAUUCUGGUGAAUCUGCGAAUUCUGCUGUAUAUCUC

Variants of: B1
Test: self-cleavage, relative activity (ratio to wild type); higher = more cleavage; in vitro, sequencing
Method in brief: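 After error-prone PCR and barcoding, CPEB3 ribozyme mutant libraries were transcribed with T7 RNA polymerase at 37°C for 5 hours, then given 15 min with DNase I before an EDTA stop, and they cleaved during both steps. Reverse transcription with template switching preceded Illumina sequencing. Relative activity divides a variant's cleaved/total read fraction by the unmutated ribozyme's. At least 5 reads were required per variant, and three batches were averaged.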

Row | Variant | self-cleavage
1 | UAACAGGGGGCCACAGCGGAGGCGUUCACGCCGCAGCCCCUGUCAGAUUCUGGUGAAUCUGCGAAUUCUGCUGUAUAUCUC [A18G A21G U31C] | 0.06
2 | UAACAGGGGGCCACAGCGGAUGCGUUCACGCCGCAGCCCCGGUCAGAUUCAGGUGAAUCUGCGAAUUCUGCUGUAUAUCUC [A18G A21U U31C U41G U51A] | 0.16
3 | UAACAGGGGGCCACAGCGGAGGCGCUCACGUCGCAGCCCCCGUCAGAUUCUGGUGAACCUGCGAAUUCUGCUGCAUAUCUC [A18G A21G U25C U41C U58C U74C] | 0.07
4 | UAACAGGGGGCCACAGCGGAGGCGUUCACGUCGCAGCCCCUGUCAGAUUCUGGAGAAUCUGCGAAUUCUGCAGUAUAUCCC [A18G A21G U54A U72A U80C] | 0.73
5 | UAACAGGGGGCCACAGCGGAGGCGUUCACGUCGCAGCCCCUGUCAGAUUCUGGUGAAUCUGCGAUUUCUGCUGUAUAUCUU [A18G A21G A65U C81U] | 0.25
6 | UAACAGGGGGCCACAGCGGAGGCGUUCAUGUCGCAGCCCCUGUCAGAUUCUGGUGAAUCUGCGAAUUCUGCGGUAUAUCUC [A18G A21G C29U U72G] | 0.33
7 | UAACAGGGGGCCACAGCGGAGGCGUUCACGUCGCAGCCCCAGUCAGAUUCUGGUGAAUCUGCGAAUUCUGCUGUAUAUCUC [A18G A21G U41A] | 0.4
8 | UAACAGGGGGCCACAGCGGAGGCGUUCACGUCGCAGCCCCCGUCAGAUUCUGGUGAAUCUGCGAAUUCUGCUGUAUAUCUC [A18G A21G U41C] | 0.34
9 | UAACAGGGGGCCACAGCGGAGGCGUUCACGUCGCAGCCCCUGUCAGAUUCUGGUGAAUCUGCGAAUUCUGCUGUAUGUCUC [A18G A21G A77G] | 0.46
10 | UAACAGGGGGCCACAGCGGAUGCGUACACGUCGCAGUCCCUGUCAGAUUCUCGUGAAUCUGCGAAUCCCGCUGUAUAUCUC [A18G A21U U26A C37U G52C U67C U69C] | 0.08
11 | UAACAGGGGGCCACAGCGGAGGCGUUCACGUCGCAGCCCCUGUCAGAUUCUGGUAGAUCUGCGAAUUCUGCUCUAUAGCUC [A18G A21G G55A A56G G73C U78G] | 0.34
12 | UAACAGGGGGCCACAGCGGAGGCGUCCACGUCGCAGCCCCUGUCAGGUUCUGGUGAAUCUGCGAAUUCUGCUGUAUAUCUC [A18G A21G U26C A47G] | 0.05
13 | UAACAGGGGGCCACAGCGGAGGCGUUCACGUCGCUGCCCCUGUCAUAUUCGGGUGAAUCUGCGAAUUCUGCGGGAUAUCUC [A18G A21G A35U G46U U51G U72G U74G] | 0.05
14 | UAACAGGGGGCCACAGCGGAGGCGUUCACGUCGCAGCCCCUGUCAGAUUCAGGUGAAUCUGCGAAUUCUGCUGUAUAUCUC [A18G A21G U51A] | 0.6
15 | UAACAGGGGGCCACAGCGGAGGCGUUCACGUCGCAGCCCCUGUCAGAUUCUGGUGAAUCUGCGAAUUCUGCUGCAUAUCUC [A18G A21G U74C] | 0.66
16 | UAACAGGGGGCCACAGCGGAAGCGUUCCCGUCGCAGCCCCAGUCUGAUUCUGGUGAAUCUGCGAAUUCUGCUGUAUAUCUC [A18G A28C U41A A45U] | 0.25
17 | UAACAGGGGGCCACAGCGGAAGCGUUCGCGUCGCAGCCCCUGUCAGAUUCCGGUGAAUCUGCGAAUUCUGCUGUAUAUCUC [A18G A28G U51C] | 0.54

Row | Variant | self-cleavage
18 | UAACAGGGGGCCACAGCGGAAGCGUUCGCGUCGCAGCCCCUGUCAGAUUCUGGUGAAUCUGCGAGUUCUGCUGUAUAUCUC [A18G A28G A65G] | 0.1
19 | UAACAGGGGGCCACAGCGGAGGCGUUCACGUCGCAGCCCCUGUCAGAUUCCGGUGAAUCUGCUAAUUCUGCCGUAUACCUC [A18G A21G U51C G63U U72C U78C] | 0.36
20 | UAACAGGGGGCCACAGCGGAAGCGUUCGCGUCGCAGCCUCUGUCAGAUUCUGGCGAAUCUGCGAAUUCUGCUGUGUAUCUC [A18G A28G C39U U54C A75G] | 0.29
21 | UAACAGGGGGCCACAGCGGUAGCGUUCACGCCGCGGCCCCUGUCAGAUCCUGGUGAAUCUGCGAAUUCUGCUGUAUACCUC [A18G A20U U31C A35G U49C U78C] | 0.04
22 | UAACAGGGGGCCACAGCGGAGGCGUUCACGUCGCAGCCCCUGUCAGACUCUGGUGAAUCUGCGAAUUCUGCUGUAUAUCUC [A18G A21G U48C] | 0.28
23 | UAACAGGGGGCCACAGCGGAAGCGUUCGCGUCGCAGCCCCUGUCUGAUUCUGGUGAAACUGCGAGUUCGGCUGUAUAUCUC [A18G A28G A45U U58A A65G U69G] | 0.07
24 | UAACAGGGGGCCACAGCGGAAGCGUUCCCGUCGCAGCCCCUGUCAGAUUCUGGUGAAUCUGCGAAUUCUGCUGUGUAUCUC [A18G A28C A75G] | 0.42
25 | UAACAGGGGGCCACAGCGGAGGCGUUCACGUCGCAGCCCCUGUCAGAUUCUGGUGGAUCCGCGAAUUCUGCAGUAUAUCUC [A18G A21G A56G U60C U72A] | 0.22
26 | UAACAGGGGGCCACAGCGGAGGCGUUCACGUCGCAGCCCCUGUCAGAUUCAGGUGAAUCUGCGGAUUCUGCUGUAUUUCUC [A18G A21G U51A A64G A77U] | 0.2
27 | UAACAGGGGGCCACAGCGGAGGCGUUCACGUCGCUGCCCCUGUCAGAUUCUGGUGAGUCUGCGAGUUCUUCUGUAUAUCUC [A18G A21G A35U A57G A65G G70U] | 0.08
28 | UAACAGGGGGCCACAGCGGAGGCGUCCACGUCGCAGCCCCCGUCAGAUUCUGGUGAAUCUGCGAAUUCCGCUGUAUAUCUC [A18G A21G U26C U41C U69C] | 0.2
29 | UAACAGGGGGCCACAGCGGAAGCGUUCGCGUCGCAGCCCCUGUCAGAUUCUGGUGAAUCUGCGAGUCCUGCUGCAUAUCUC [A18G A28G A65G U67C U74C] | 0.39
30 | UAACAGGGGGCCACAGCGGAGGCGUUCACGUCGCAGCCCCUGUCAGAUUCUGGUGAAUCUGCGAAUGCUGCUGUAUAUCUC [A18G A21G U67G] | 0.6
31 | UAACAGGGGGCCACAGCGGAGGCGUUCACGUCGCAGCCCCUGUCUGAUUCUGGUGAGUCUGCGAAUUCUGCUGUAUGUCUC [A18G A21G A45U A57G A77G] | 0.08
32 | UAACAGGGGGCCACAGCGGAAGCGUUCGCGUCGCAGCCCCUGUCAGAUUCUGGUGGGUCUGCGAAUACUGCUGUAUAUCUC [A18G A28G A56G A57G U67A] | 0.05
33 | UAACAGGGGGCCACAGCGGAGGCGUACACGUCGCAGCCCCUGUCAGAUUCUGGUGAAUCUGCGAAUUCUGCUGUAUAUCUC [A18G A21G U26A] | 0.28
34 | UAACAGGGGGCCACAGCGGAAGCGUUCGCGUCGCAACCCCUGUCAGAUUCUGGUGAAUCUGCGAAUUCUGCUGUAUUUCUC [A18G A28G G36A A77U] | 0.17
